Measured values from publication PMC4336329 (PLoS ONE, 2015).
Out of some 310,000 compounds screened, about 2,200 (0.71%) showed an effect of 50% or more. The effect is printed as a negative number. Some of the results follow.

Target: human ether-à-go-go-related gene (hERG) potassium channel (human, UniProt Q12809)
Experiment: primary screen, population patch clamp on CHO cells stably expressing hERG

human ether-à-go-go-related gene (hERG) potassium channel, sequence (Q12809 whole entry, looked up): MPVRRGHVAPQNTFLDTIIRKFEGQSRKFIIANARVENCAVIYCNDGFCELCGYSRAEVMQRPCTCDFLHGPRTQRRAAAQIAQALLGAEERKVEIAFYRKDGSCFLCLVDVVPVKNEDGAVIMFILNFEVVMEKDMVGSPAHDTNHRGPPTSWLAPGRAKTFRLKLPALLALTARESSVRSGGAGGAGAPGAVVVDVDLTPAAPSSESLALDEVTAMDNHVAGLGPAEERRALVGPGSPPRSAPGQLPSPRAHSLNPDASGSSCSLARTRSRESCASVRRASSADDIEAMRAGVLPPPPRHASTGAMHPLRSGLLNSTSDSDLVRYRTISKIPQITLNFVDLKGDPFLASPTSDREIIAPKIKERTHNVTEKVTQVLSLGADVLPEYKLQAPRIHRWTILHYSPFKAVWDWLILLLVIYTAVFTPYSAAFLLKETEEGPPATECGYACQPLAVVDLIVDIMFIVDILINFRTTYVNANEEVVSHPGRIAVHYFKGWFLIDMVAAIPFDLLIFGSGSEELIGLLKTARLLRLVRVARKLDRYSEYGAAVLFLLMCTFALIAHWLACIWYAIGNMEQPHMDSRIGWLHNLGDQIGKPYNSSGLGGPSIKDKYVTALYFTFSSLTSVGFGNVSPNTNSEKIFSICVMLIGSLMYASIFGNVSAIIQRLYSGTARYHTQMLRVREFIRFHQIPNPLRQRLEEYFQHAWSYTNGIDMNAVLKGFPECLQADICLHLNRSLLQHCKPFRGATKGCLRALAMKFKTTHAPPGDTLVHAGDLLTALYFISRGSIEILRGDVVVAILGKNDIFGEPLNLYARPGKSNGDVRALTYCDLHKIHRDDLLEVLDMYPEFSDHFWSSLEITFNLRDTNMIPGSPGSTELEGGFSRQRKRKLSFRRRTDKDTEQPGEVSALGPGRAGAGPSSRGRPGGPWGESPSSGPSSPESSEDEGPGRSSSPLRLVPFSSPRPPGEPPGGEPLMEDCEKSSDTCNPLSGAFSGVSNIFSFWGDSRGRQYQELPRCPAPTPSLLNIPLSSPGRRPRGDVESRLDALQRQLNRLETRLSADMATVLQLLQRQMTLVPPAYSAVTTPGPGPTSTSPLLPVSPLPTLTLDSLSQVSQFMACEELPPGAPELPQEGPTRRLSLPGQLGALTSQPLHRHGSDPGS

SMILES | hERG current change (%, negative = inhibition) at 1uM [%]
C=CCNC(=O)c1ccc(-n2cccc2)cc1 | 14.9
Cc1cc(NC(=O)COC(=O)CCS(=O)(=O)c2ccc(Cl)cc2)no1 | 14.3
Cc1nnc(-c2cccc(Br)c2)c2cn(-c3cccc(Br)c3)nc12 | 5.15
Cc1csc(NC(=O)CSc2nc(=O)[nH]c3c2CCCC3)n1 | 11.3
CCOc1ncccc1C(=O)Nc1ccc(F)c(Cl)c1 | 13.9
C#CCSc1nnnn1-c1ccc(OCC)cc1 | 6.72
C=CCN(c1ccc(Cl)cc1)S(=O)(=O)c1cccc(C(=O)OCC(=O)N(C)C)c1 | 18.2
CC(C)(C)NC(=O)C(c1ccco1)N(C(=O)Cn1nnc(-c2ccc(F)cc2)n1)c1ccccc1F (stereo not shown) | 4.46
COc1ccccc1NC(=O)Cn1nc(Cc2cccnc2)c2ccccc2c1=O | 12.7
Cc1c(C)n(Cc2ccccc2)c2ccc(C(=O)OCCCN(C)C)cc12 | 12.1
CCCCN(CC)CCNC(=O)c1cn(CCOC)c(=O)c2c1c1ccccc1n2C | 7.47
CCCCn1c(N)c(N(Cc2ccccc2OC)C(=O)C(C)C)c(=O)[nH]c1=O | 13.6
COc1ccc(C(=O)NN2C(=S)N(c3ccc(OC)cc3)C(=O)C2CC(N)=O)cc1 (stereo not shown) | 14.7
COc1cccc(Sc2nc(-c3ccccc3)ncc2S(C)(=O)=O)c1 | 9.48
CC(C)N1CCC(NC(=O)Nc2ccccc2)CC1 | 0.863
C=C(C)C(=O)Nc1cccc(C2=NOC3(C2)C[C@H](C(N)=O)N(C(=O)C(c2ccccc2)c2ccccc2)C3)c1 (stereo partly shown) | -17
Cc1ccccc1NC(=O)CN1C(=O)NC(C)(CCc2ccccc2)C1=O (stereo not shown) | 9.99
CCOC(=O)c1c(-c2ccc(C)cc2C)csc1NC(=O)CSc1nnnn1C | -3.8
O=C(NCc1cccc(F)c1F)C1CCC(=O)N(C2CC2)C1 (stereo not shown) | 20.2
O=C(NCc1ccc2c(c1)OCO2)c1cccc(C(=O)NCc2ccc3c(c2)OCO3)c1 | 7.02
Cc1ccc(Cl)cc1-c1ccc(C=Nc2ccc(N3CCOCC3)cc2)o1 | 11.3
COC(=O)c1cccnc1-n1c(=O)c2cccnc2n(Cc2ccc([N+](=O)[O-])cc2)c1=O | 3.05

SMILES | hERG current change (%, negative = inhibition) at 1uM [%]
CCSc1nc(N)nc(-c2cccs2)c1C#N | 8.35
O=C(Nc1nncs1)C(Sc1ccccc1)c1ccccc1 (stereo not shown) | 9.4
CN(C)CCN(CC1CCCN(Cc2ccccc2F)C1)C(=O)Cc1c(F)cccc1F (stereo not shown) | 9.43
CS(=O)(=O)N1CCN(c2ccc(Cl)cc2[N+](=O)[O-])CC1 | 5.63
CN(C)C=O.COc1ccc(/C=C/c2nc3ccccc3c(=O)n2-c2cccc(C(=O)O)c2)cc1 | 1.21
CCn1c(C(=O)NCc2cccnc2)cc2sc(Cl)cc21 | -15.4
CCCCOC(=O)C1=C(C)NC(=O)NC1c1ccccc1 (stereo not shown) | 9.04
O=C(NC1CCCCC1)c1cccs1 | 10.5
COc1ccc(C(=O)N2C(=S)NC(=O)/C2=C\c2ccc(C)cc2)cc1 | 6.5
O=C(N/N=C/c1ccc[nH]1)c1sc2ccccc2c1Cl | -4.02
COc1ccc(CCNC(=O)COc2ncnc3ccccc23)cc1 | 3.52
O=C(Cn1cnc2c(nnn2Cc2ccc(Cl)cc2)c1=O)NCC1CCCO1 (stereo not shown) | 6.32
Cc1cc(C)cc(N(C(=O)c2csnn2)C(C(=O)NC2CCCCC2)c2ccncc2)c1 (stereo not shown) | 10.6
Cc1ccc(CCNC(=O)C2CCN(S(=O)(=O)N3CCCC3)CC2)cc1 | 4.73
COc1cccc(NC(=O)CN2C(=O)NC3(CCCc4ccccc43)C2=O)c1 (stereo not shown) | 13.1
Cn1ncc([N+](=O)[O-])c1C(=O)NCc1ccccc1 | 17.1
Cc1c(C)n(Cc2ccccc2)c2ccc(C(=O)OCCN(C)C)cc12.O=C(O)CCC(=O)O | 8.12
Cc1cccc(NC(=O)C2CCN(C(=O)c3ccc(F)cc3)CC2)n1 | 10.7
COc1ccc(-c2cc3ccc(OC(C)C(=O)O)cc3oc2=O)cc1 (stereo not shown) | 12.3
COc1ccc(C(CNC(=O)c2ccc(NS(=O)(=O)c3ccc4c(c3)OCCO4)cc2)N(C)C)cc1 (stereo not shown) | 16.1
O=C(CN1CCN(Cc2ccc(Cl)cc2)C1=O)NCCCN1CCN(c2ccc(F)cc2)CC1 | -36.8
COc1ccc(CN2CCC(=O)N([C@H](CO)Cc3ccccc3)CC2)cc1OC | 10.1

SMILES | hERG current change (%, negative = inhibition) at 1uM [%]
COC(=O)[C@@H](Cc1c[nH]c2ccccc12)NC(=O)CNC(=O)c1ccccc1OC | 11
COc1cc(/C=C/C(=O)Nc2cc(C(F)(F)F)ccc2Cl)cc(OC)c1OC | 10.8
C/C(=N/Nc1ccccc1C(=O)O)c1cccs1 | 17.5
CSc1nnc(-c2ccc(S(=O)(=O)N3CCOCC3)cc2)n1CC1CCCO1 (stereo not shown) | 6.43
O=[N+]([O-])c1ccc(-c2ccc(C=Nc3cccc4ccccc34)o2)cc1 | 16.3
CC(OC(=O)c1ccc2ccccc2n1)C(=O)Nc1ccc(N2CCOCC2)cc1 (stereo not shown) | -1.4
Clc1ccccc1Cn1nnc2c(NCC3CC3)ncnc21 | 4.46
CC(C)(C)C(=O)Cn1c(NCCCl)nc2ccccc21.Cl | 13.8
Cc1cc(=O)cc(C)n1-c1ccc(Cl)cc1 | 13.2
CCN(CC)c1ccc(NC(=O)c2ccco2)c(C)c1 | 0.0417
C(=N\c1nc2ccccc2n1CCN1CCOCC1)/c1cccs1 | -7.01
Cc1cccc(NC(=O)Nc2ccncc2)c1 | 14.9
Cc1nc2c(c(=O)n1CCC1=CCCCC1)c1nc3ccccc3nc1n2/N=C/c1ccco1 | 1.51
O=C(Nc1cnc2ccccc2c1)c1ccco1 | 7.85
Cc1c(O)ccc2c3c(c(=O)oc12)CCCC3 | 8.37
O=C(c1nc2ccccn2c1CNCCCn1nnc2ccccc21)N1CCOCC1 | 4.12
CC(C)c1ccccc1NC(=S)NN(Cc1ccccc1)c1ccccc1 | 12.1
Cc1cc(Br)ccc1N=C1NC(=O)CS1 | 9.93
O=C(CC1Oc2ccccc2NC1=O)NCc1ccccc1 (stereo not shown) | 3.24
COc1ccc(C)cc1NC(=O)COC(=O)Cc1ccc(-c2ccccc2)cc1 | 10.7
COc1ccc(-c2ccc(C(C)=O)cc2)cc1[C@H]1[C@H]2C=CC[C@@H](C)[C@@H]2C(=O)N1Cc1ccccc1 | 8.82
O=[N+]([O-])c1ccc(Cc2ccccn2)c([N+](=O)[O-])c1 | -6.96

SMILES | hERG current change (%, negative = inhibition) at 1uM [%]
Cn1c(C(=O)NCCCN2CCc3ccccc3C2)cc2c(=O)n(C)c3ccccc3c21 | -5.66
O=C(Cn1cc(C(F)(F)F)ccc1=O)NC1CCCC1 | 10.3
C=CCNC(=S)NNC(=O)c1cccn(Cc2cccc(Cl)c2)c1=O | 5.17
CC1=C(C#N)C(=O)NC(=O)/C1=C/c1ccc(-c2ccc(S(N)(=O)=O)cc2)o1 | 9.65
CC1CCCCC12NC(=O)N(CC(=O)Nc1ccccc1-c1ccccc1)C2=O (stereo not shown) | 3.31
CCCN1C2=NS(=O)(=O)CCN2c2ccccc21 | -0.883
Cc1ccc(NS(=O)(=O)c2cc(C(=O)N3CCN(C)CC3)ccc2C)cc1C | 6.43
CCCCNC(=S)N1CCn2cccc2C1c1ccc(F)cc1 (stereo not shown) | 6.35
CC(=O)N1C(=O)N(C)C2C1N(C)C(=O)N2C(C)=O (stereo not shown) | 16.6
COc1cc(NC(=O)c2ccc([N+](=O)[O-])o2)ccc1NC(=O)c1ccco1 | 16.7
COc1ccc(C)cc1S(=O)(=O)NC(C)C(=O)NC1CC1 (stereo not shown) | 8.45
Cc1c(C)c(C)c(/C=[N+](/C)[O-])c(C)c1C | 21.4
CCN=C1SC(C(=O)Nc2ccc(Cl)c(Cl)c2)CC(=O)N1CC (stereo not shown) | 6.96
CC(C)COc1ccc(C(=O)N(CC(=O)Nc2ccccc2C(F)(F)F)Cc2ccco2)cc1 | -4.53
O=C1[C@@H]2C(c3cccnc3)=NO[C@@H]2C(=O)N1c1ccc(Br)cc1 | 11.5
COc1ccccc1CCN1CCCC(CN(C)C(=O)c2ccoc2)C1 (stereo not shown) | -0.324
CC(NC(=O)Nc1cccc([N+](=O)[O-])c1)c1ccc2c(c1)OCO2 (stereo not shown) | 11.2
COc1ccc(NC(C)=O)cc1S(=O)(=O)Nc1ccc(C(=O)N2CCCC2)cc1 | 10.1
Clc1ccc(C2CC(c3cccs3)n3ncnc3N2)cc1Cl (stereo not shown) | 5.4
Cc1ccc(S(=O)(=O)N(Cc2ccccc2F)C(=O)N2CCN(C)CC2)cc1 | 14
CC(C)Oc1ccc(N2C(=O)c3ccccc3C2=O)cc1 | 11
Cc1cc(SCC(=O)c2ccccc2)n2ncc(-c3ccccc3)c2n1 | 12.3
